# Measurements reported in the supplement of paper PMC8728848.
# The other results are listed elsewhere or left out.
# B1: UEA-I (Ulex europaeus), P22972 (protein)
# chain: SDDLSFKFKNFSQNGKDLSFQGDASVIETGVLQLNKVGNNLPDETGGIARYIAPIHIWNCNTGEVASFITSFSFFMETSANPKAATDGLTFFLAPPDSPLRRAGGYFGLFEDTKDNDSSYQTVAVEFDTIGSPVNFDDPGFPHIGIDVNRVKSINAERWNKRYGLNNVANVEIIYEASSKTLTASLTYPSDQTSISVTSIVDLKEILPEWVSVGFSGGTYIGRQATHEVLNWYFTSNLINTNS
# Key:
# Assay in all cases: glycan array binding signal (z-score within array); higher = stronger binding
# Conditions in all cases: glycan notation: IUPAC condensed, linker removed
# [1] = molecular target: Gal(b1-3)[Neu5Ac(a2-6)]GlcNAc(a1-4)Gal(b1-4)Glc
# Summary of the method: (§1)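 Arrays were curated from the Consortium for Functional Glycomics database, 3228 in total, and kept only where the protein sequence was available. Binding is expressed as a within-array Z-score. This score was averaged across arrays of the same protein sequence at different concentrations or buffers and across linkers, and negative values can be read as non-binding.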
# [2] = molecular target: Gal(b1-3)[Neu5Ac(a2-6)]GlcNAc(b1-4)Gal(b1-4)Glc
# Summary of the method: as §1
# [3] = molecular target: Gal(b1-3)[Neu5Ac(a2-6)]GlcNAc(b1-6)Gal(b1-4)Glc
# Summary of the method: as §1
# [4] = molecular target: Gal(b1-3)[Neu5Ac(b2-6)]GalNAc
# Summary of the method: as §1
# [5] = molecular target: Gal(b1-3)[Neu5Ac(b2-6)]GlcNAc
# Summary of the method: as §1
# Gal(b1-4)Gal = molecular target: Gal(b1-4)Gal
# Summary of the method: as §1
# [6] = molecular target: Gal(b1-4)GalNAc(a1-3)[Fuc(a1-2)]Gal(b1-4)GlcNAc
# Summary of the method: as §1
# [7] = molecular target: Gal(b1-4)GalNAc(b1-3)[Fuc(a1-2)]Gal(b1-4)GlcNAc
# Summary of the method: as §1
# Gal(b1-4)Glc = molecular target: Gal(b1-4)Glc
# Summary of the method: as §1
# Gal(b1-4)Glc6S = molecular target: Gal(b1-4)Glc6S
# Summary of the method: as §1
# Gal(b1-4)GlcNAc = molecular target: Gal(b1-4)GlcNAc
# Summary of the method: as §1
# [8] = molecular target: Gal(b1-4)GlcNAc(a1-6)Gal(b1-4)GlcNAc
# Summary of the method: as §1
# Gal(b1-4)GlcNAc(b1-2)Man = molecular target: Gal(b1-4)GlcNAc(b1-2)Man
# Summary of the method: as §1
# [9] = molecular target: Gal(b1-4)GlcNAc(b1-2)Man(a1-3)Man(b1-4)GlcNAc(b1-4)GlcNAc
# Summary of the method: as §1
# [10] = molecular target: Gal(b1-4)GlcNAc(b1-2)Man(a1-3)[Gal(b1-4)GlcNAc(b1-2)Man(a1-6)]Man(b1-4)GlcNAc(b1-4)GlcNAc
# Summary of the method: as §1
# [11] = molecular target: Gal(b1-4)GlcNAc(b1-2)Man(a1-3)[Gal(b1-4)GlcNAc(b1-2)Man(a1-6)]Man(b1-4)GlcNAc(b1-4)[Fuc(a1-6)]GlcNAc
# Summary of the method: as §1
# [12] = molecular target: Gal(b1-4)GlcNAc(b1-2)Man(a1-3)[Gal(b1-4)GlcNAc(b1-2)Man(a1-6)][Gal(b1-4)GlcNAc(b1-4)]Man(b1-4)GlcNAc(b1-4)[Fuc(a1-6)]GlcNAc
# Summary of the method: as §1
# [13] = molecular target: Gal(b1-4)GlcNAc(b1-2)Man(a1-3)[Gal(b1-4)GlcNAc(b1-2)Man(a1-6)][GlcNAc(b1-4)]Man(b1-4)GlcNAc(b1-4)[Fuc(a1-6)]GlcNAc
# Summary of the method: as §1
# [14] = molecular target: Gal(b1-4)GlcNAc(b1-2)Man(a1-3)[GlcNAc(b1-2)Man(a1-6)]Man(b1-4)GlcNAc(b1-4)GlcNAc
# Summary of the method: as §1
# [15] = molecular target: Gal(b1-4)GlcNAc(b1-2)Man(a1-3)[GlcNAc(b1-4)][Gal(b1-4)GlcNAc(b1-2)Man(a1-6)]Man(b1-4)GlcNAc(b1-4)GlcNAc
# Summary of the method: as §1
# [16] = molecular target: Gal(b1-4)GlcNAc(b1-2)Man(a1-3)[Man(a1-6)]Man(b1-4)GlcNAc(b1-4)GlcNAc
# Summary of the method: as §1
# [17] = molecular target: Gal(b1-4)GlcNAc(b1-2)Man(a1-6)Man(b1-4)GlcNAc(b1-4)GlcNAc
# Summary of the method: as §1
# [18] = molecular target: Gal(b1-4)GlcNAc(b1-2)Man(a1-6)[GlcNAc(b1-2)Man(a1-3)]Man(b1-4)GlcNAc(b1-4)GlcNAc
# Summary of the method: as §1
# [19] = molecular target: Gal(b1-4)GlcNAc(b1-2)Man(a1-6)[Man(a1-3)]Man(b1-4)GlcNAc(b1-4)GlcNAc
# Summary of the method: as §1
# [20] = molecular target: Gal(b1-4)GlcNAc(b1-2)[Gal(b1-4)GlcNAc(b1-4)]Man(a1-3)[Gal(b1-4)GlcNAc(b1-2)Man(a1-6)]Man(b1-4)GlcNAc(b1-4)GlcNAc
# Summary of the method: as §1
# [21] = molecular target: Gal(b1-4)GlcNAc(b1-2)[Gal(b1-4)GlcNAc(b1-4)]Man(a1-3)[Gal(b1-4)GlcNAc(b1-2)[Gal(b1-4)GlcNAc(b1-6)]Man(a1-6)]Man(b1-4)GlcNAc(b1-4)GlcNAc
# Summary of the method: as §1
# [22] = molecular target: Gal(b1-4)GlcNAc(b1-2)[Gal(b1-4)GlcNAc(b1-4)]Man(a1-3)[GlcNAc(b1-4)][Gal(b1-4)GlcNAc(b1-2)Man(a1-6)]Man(b1-4)GlcNAc(b1-4)GlcNAc
# Summary of the method: as §1
# [23] = molecular target: Gal(b1-4)GlcNAc(b1-2)[Gal(b1-4)GlcNAc(b1-4)]Man(a1-3)[GlcNAc(b1-4)][Gal(b1-4)GlcNAc(b1-2)[Gal(b1-4)GlcNAc(b1-6)]Man(a1-6)]Man(b1-4)GlcNAc(b1-4)GlcNAc
# Summary of the method: as §1
# [24] = molecular target: Gal(b1-4)GlcNAc(b1-2)[Gal(b1-4)GlcNAc(b1-6)]Man(a1-6)[Gal(b1-4)GlcNAc(b1-2)Man(a1-3)]Man(b1-4)GlcNAc(b1-4)GlcNAc
# Summary of the method: as §1
# [25] = molecular target: Gal(b1-4)GlcNAc(b1-2)[Gal(b1-4)GlcNAc(b1-6)]Man(a1-6)[Gal(b1-4)GlcNAc(b1-2)Man(a1-3)]Man(b1-4)GlcNAc(b1-4)[Fuc(a1-6)]GlcNAc
# Summary of the method: as §1
# [26] = molecular target: Gal(b1-4)GlcNAc(b1-2)[Gal(b1-4)GlcNAc(b1-6)]Man(a1-6)[GlcNAc(b1-4)][Gal(b1-4)GlcNAc(b1-2)Man(a1-3)]Man(b1-4)GlcNAc(b1-4)GlcNAc
# Summary of the method: as §1
# [27] = molecular target: Gal(b1-4)GlcNAc(b1-2)[Gal(b1-4)GlcNAc(b1-6)]Man(a1-6)[GlcNAc(b1-4)][Gal(b1-4)GlcNAc(b1-2)[Gal(b1-4)GlcNAc(b1-4)]Man(a1-3)]Man(b1-4)GlcNAc(b1-4)[Fuc(a1-6)]GlcNAc
# Summary of the method: as §1
# [28] = molecular target: Gal(b1-4)GlcNAc(b1-3)Gal(b1-3)GalNAc
# Summary of the method: as §1
# [29] = molecular target: Gal(b1-4)GlcNAc(b1-3)Gal(b1-3)GlcNAc
# Summary of the method: as §1
# [30] = molecular target: Gal(b1-4)GlcNAc(b1-3)Gal(b1-4)Glc
# Summary of the method: as §1
# [31] = molecular target: Gal(b1-4)GlcNAc(b1-3)Gal(b1-4)GlcNAc
# Summary of the method: as §1
# [32] = molecular target: Gal(b1-4)GlcNAc(b1-3)Gal(b1-4)GlcNAc(b1-2)Man(a1-3)[Gal(b1-4)GlcNAc(b1-3)Gal(b1-4)GlcNAc(b1-2)Man(a1-6)]Man(b1-4)GlcNAc(b1-4)GlcNAc
# Summary of the method: as §1
binder,measurement,setting,value
B1,glycan array binding signal (z-score),[1],-0.409
same,glycan array binding signal (z-score),[2],-0.234
same,glycan array binding signal (z-score),[3],-0.24
same,glycan array binding signal (z-score),[4],-0.228
same,glycan array binding signal (z-score),[5],-0.41
same,glycan array binding signal (z-score),Gal(b1-4)Gal,-0.218
same,glycan array binding signal (z-score),[6],-0.22
same,glycan array binding signal (z-score),[7],-0.23
same,glycan array binding signal (z-score),Gal(b1-4)Glc,-0.147
same,glycan array binding signal (z-score),Gal(b1-4)Glc6S,-0.199
same,glycan array binding signal (z-score),Gal(b1-4)GlcNAc,-0.196
same,glycan array binding signal (z-score),[8],-0.182
same,glycan array binding signal (z-score),Gal(b1-4)GlcNAc(b1-2)Man,-0.23
same,glycan array binding signal (z-score),[9],-0.074
same,glycan array binding signal (z-score),[10],-0.309
same,glycan array binding signal (z-score),[11],-0.042
same,glycan array binding signal (z-score),[12],-0.208
same,glycan array binding signal (z-score),[13],-0.175
same,glycan array binding signal (z-score),[14],-0.203
same,glycan array binding signal (z-score),[15],-0.232
same,glycan array binding signal (z-score),[16],-0.193
same,glycan array binding signal (z-score),[17],-0.233
same,glycan array binding signal (z-score),[18],-0.155
same,glycan array binding signal (z-score),[19],-0.184
same,glycan array binding signal (z-score),[20],-0.165
same,glycan array binding signal (z-score),[21],-0.195
same,glycan array binding signal (z-score),[22],-0.241
same,glycan array binding signal (z-score),[23],-0.233
same,glycan array binding signal (z-score),[24],-0.025
same,glycan array binding signal (z-score),[25],-0.124
same,glycan array binding signal (z-score),[26],-0.195
same,glycan array binding signal (z-score),[27],-0.123
same,glycan array binding signal (z-score),[28],-0.271
same,glycan array binding signal (z-score),[29],-0.141
same,glycan array binding signal (z-score),[30],-0.149
same,glycan array binding signal (z-score),[31],-0.207
same,glycan array binding signal (z-score),[32],0.184
